Reference: PubChem BioAssay AID1466 (National Center for Advancing Translational Sciences (NCATS), 2008)
In all, about 200,000 compounds went through this assay and about 10 (0.005%) were called active. This list was built around the results that the source calls inconclusive (neither active nor inactive); the mix of calls is not that of the screen. Calls come from the whole dose curve; as a rule, active = well fitted inhibition curve with a large enough effect; inconclusive = small, poorly fitted or top-dose-only effect, or effect the other way, or another doubt; inactive = no such curve, though single readings can be large or run the other way. Potencies of inconclusive entries are doubtful fits and often do not repeat.
Potency is the fitted concentration of half-maximal effect; tags give direction and shape of the fitted curve.
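Throughout, for activity change, negative = inhibition: plate controls were uninhibited enzyme wells for no effect and no-enzyme background for full effect.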

Each compound was assayed against Lysosomal alpha-glucosidase (Homo sapiens) (UniProt P10253) (assay: qHTS Assay for Inhibitors of Human alpha-Glucosidase as a Potential Chaperone Treatment of Pompe Disease). Details: purified human GAA, 4-MU-alpha-glucoside fluorescence; activity change, negative = inhibition: at 76.9 µM (top of the series) unless noted.
In short: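 AC50 values come from Hill fits of compound titrations (up to 77 uM) against 4 nM human enzyme. Substrate 4-methylumbelliferyl-alpha-D-pyranoside at 400 uM, pH 5.0 citrate buffer, 20 min room temperature; fluorescence Ex 365/Em 440 after alkaline stop.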
In the case of O=C(CCC(=O)N/N=C/c1cc(Cl)cc(Cl)c1O)NCc1ccccc1, the activity change, negative = inhibition is reported as inconclusive: 24% [activator]. C=CCOc1ccc(C2C(C(=O)c3ccco3)=C(O)C(=O)N2Cc2cccnc2)cc1 (configuration not stated) was tested, and the Potency was inconclusive: 12.6 µM [inhibitor, partial curve, poor fit]. With O=C(CSc1nnnn1-c1ccc(O)cc1)N1N=C(c2ccc3ccccc3c2)CC1c1ccccc1 (configuration not stated) the Potency was inconclusive: 0.178 µM [inhibitor, full curve, poor fit]. In the case of COCCNC(=O)/C(C#N)=C/c1cccc(OCc2ccccc2)c1, the Potency is reported as inconclusive: 50.1 µM [inhibitor, single point]. With COCCNC(=O)c1ccc2c(=O)n(CCOC)c(=O)[nH]c2c1 the Potency was inconclusive: 28.2 µM [activator, partial curve]. For COCCNS(=O)(=O)c1ccc2c3c(cccc13)C(=O)N2C, the activity change, negative = inhibition was inconclusive: 17.9% [activator]. CN1CCOCCOCCOCCN(C)C1=S was tested, and the activity change, negative = inhibition was inconclusive: 19.3% [activator]. With CNc1oc(/C=C/c2ccccc2)nc1C#N the Potency was inconclusive: 35.5 µM [activator, partial curve]. Cc1cc(C(=O)NCc2ccccc2)no1 was tested, and the activity change, negative = inhibition was inconclusive: 9.67% [activator]. With Cc1c(NC(=O)CN2CCN(c3ccc([N+](=O)[O-])cc3)CC2)c(=O)n(-c2ccccc2)n1C the Potency was “inactive”. COc1ccc(N(CC(=O)N2c3ccccc3CC2C)S(=O)(=O)c2c(C)nn(C)c2C)cc1 (configuration not stated) was tested, and the activity change, negative = inhibition was inconclusive: -17.8% [inhibitor] [at 15.4 µM]. In the case of COc1cccc(NS(=O)(=O)c2cn(C)c(=O)n(C)c2=O)c1, the Potency is reported as inconclusive: 56.2 µM [inhibitor, single point]. CN(c1ccccc1)S(=O)(=O)c1cccc(NS(=O)(=O)c2ccc(/C=C/C(=O)O)cc2)c1 was tested, and the Potency was inconclusive: 25.1 µM [inhibitor, partial curve]. Cc1[nH]c2ccc(F)cc2c1CCN(Cc1ccco1)C(=S)NC(C)(C)C was tested, and the Potency was inconclusive: 31.6 µM [inhibitor, single point]. CCc1nnc(NC(=O)C(=O)NCCOC(=O)c2ccccc2)s1 was tested, and the Potency was inconclusive: 50.1 µM [inhibitor, single point]. In the case of COc1ccc(N2CCN(c3nc4ccc(C)cn4c(=O)c3C=O)CC2)cc1, the Potency is reported as inconclusive: 11.2 µM [inhibitor, single point]. In the case of O=C(c1ccco1)N1CCCN(Cc2cn[nH]c2-c2ccc(-c3ccccc3)cc2)CC1, the activity change, negative = inhibition is reported as inconclusive: 10% [activator]. For CCC(=O)N1CCN(c2ccccc2NC(=O)COc2cccc(C)c2)CC1, the activity change, negative = inhibition was inconclusive: -18.7% [inhibitor]. For Cc1ccc(N2C(=O)C(Cc3ccc(O)cc3)NC2=S)cc1C (configuration not stated), the Potency was inconclusive: 44.7 µM [inhibitor, single point]. For CCOC(=O)c1c(C)[nH]c(C(=O)OCC(=O)N2CC(C)OC(C)C2)c1C (configuration not stated), the Potency was inconclusive: 56.2 µM [inhibitor, single point]. In the case of Cc1cccc(NC(=O)C2CCN(S(=O)(=O)c3cccs3)CC2)n1, the activity change, negative = inhibition is reported as inconclusive: -16.1% [inhibitor]. For CN(C)c1ccc(N/C=C/C(=O)c2ccco2)cc1, the Potency was “inactive”. In the case of CCCCc1ccc(-c2ccc(Br)cc2O)nc1, the Potency is reported as inconclusive: 3.55 µM [inhibitor, partial curve]. With CCOC(=O)c1ccc(NC(=S)N2CCSC2c2ccc(Br)cc2)cc1 (configuration not stated) the Potency was inconclusive: 12.6 µM [inhibitor, partial curve]. In the case of COc1ccccc1OCCOc1ccc(/C=N/n2cnnc2)cc1, the activity change, negative = inhibition is reported as inconclusive: -15.8% [inhibitor]. For CCSc1nc(O)c(C2OC(=O)c3c2ccc(OC)c3OC)c(=O)n1-c1ccccc1 (configuration not stated), the Potency was inconclusive: 11.2 µM [inhibitor, single point]. For Cn1c(C(=O)N2COCC2(C)C)cc2c(=O)n3ccccc3nc21, the Potency was inconclusive: 35.5 µM [activator, partial curve]. CCc1ccc(-c2cc(C(=O)NN3CCOCC3)c3ccccc3n2)s1 was tested, and the Potency was inconclusive: 39.8 µM [activator, partial curve]. In the case of O=C(CN1C(=O)/C(=C\c2ccccc2Cl)Oc2ccccc21)NCc1cccnc1, the Potency is reported as inconclusive: 11.2 µM [activator, single point]. O=[N+]([O-])c1cc(C(F)(F)F)ccc1NCCc1c[nH]c2ccccc12 was tested, and the activity change, negative = inhibition was inconclusive: -18.1% [inhibitor]. In the case of O=C1OC2(CCCC2)OC(=O)C1=Cc1c[nH]c2ccccc12, the activity change, negative = inhibition is reported as inconclusive: 15.4% [activator]. For CC(=O)N1CSCC1C(=O)N1CCN(c2ccc(N3CCOCC3)nn2)CC1 (configuration not stated), the activity change, negative = inhibition was inconclusive: 15.6% [activator]. In the case of Cc1ccc(C)c(C(=O)COC(=O)c2cc([N+](=O)[O-])ccc2NCCO)c1, the Potency is reported as inconclusive: 35.5 µM [inhibitor, partial curve]. Cc1ccc(OCCNC(=O)C(=O)NCc2ccco2)cc1 was tested, and the activity change, negative = inhibition was inconclusive: 14.1% [activator]. In the case of Nc1nn2cc(-c3ccccc3)nc2c2ccccc12, the Potency is reported as inconclusive: 35.5 µM [activator, partial curve]. With COc1cc2c(cc1OC)C1=NC(=O)CN1C(SCc1ccccc1C)=N2 the Potency was inconclusive: 25.1 µM [activator, partial curve]. For CCc1nnc(NC(=O)[C@@H](NC(=O)c2cc(OC)cc(OC)c2)C(C)C)s1, the Potency was inconclusive: 7.94 µM [inhibitor, full curve, poor fit]. N#Cc1nc(-c2ccccc2F)oc1N1CCCC1 was tested, and the Potency was inconclusive: 17.8 µM [activator, partial curve]. CCOc1ccccc1-n1c(SCC(=O)NC)nnc1-c1ccco1 was tested, and the Potency was inconclusive: 44.7 µM [inhibitor, partial curve]. In the case of Cc1cc(Nc2ccccc2)n(CCO)n1, the Potency is reported as “inactive”. In the case of O=c1c2ccccc2c(C=NCCCN2CCOCC2)c(O)n1Cc1ccccc1, the activity change, negative = inhibition is reported as inconclusive: -16.4% [inhibitor]. For C=C(C)C(C)(C#CCN1CCCC1)OC(C)=O (configuration not stated), the Potency was inconclusive: 11.2 µM [inhibitor, single point]. In the case of O=C(Nc1nc2ccccc2[nH]1)C12CC3CC(CC(C3)C1)C2, the activity change, negative = inhibition is reported as inconclusive: -17% [inhibitor]. With COCCNC(=O)c1ccccc1NC(=O)c1ccccc1SC the Potency was inconclusive: 0.794 µM [activator, full curve]. With Cc1ccc(S(=O)(=O)c2nc(C)oc2N2CCOCC2)cc1 the activity change, negative = inhibition was inconclusive: 21.3% [activator]. In the case of NC(=S)NN=C(Cc1ccccc1)Cc1ccccc1, the Potency is reported as “inactive”. With O=C(CN1C(=O)CCC1=O)Nc1nc(-c2cccs2)cs1 the Potency was inconclusive: 56.2 µM [inhibitor, single point]. Cc1nc(N2CCC(C)CC2)c2c(C)c(C(=O)O)sc2n1 was tested, and the Potency was inconclusive: 1.41 µM [inhibitor, full curve, poor fit]. For Cc1ccc(C(=O)NCCSc2ccc(Cl)cc2)cc1[N+](=O)[O-], the Potency was inconclusive: 50.1 µM [inhibitor, single point]. With COCCOC(=O)C1=C(C)NC(=O)NC1c1cn(-c2ccccc2)nc1-c1cccs1 (configuration not stated) the activity change, negative = inhibition was inconclusive: -19% [inhibitor]. In the case of COc1ccc([N+](=O)[O-])cc1NC(=O)C1(c2ccc(OC)c(OC)c2)CCOCC1, the activity change, negative = inhibition is reported as inconclusive: 15.6% [activator]. With Cc1cc(C(=O)O)ccc1-c1ccc(CO)o1 the Potency was inconclusive: 2.51 µM [activator, full curve, poor fit]. With CCCCC1(C)Nc2ccccc2-c2nc3ccccc3n21 (configuration not stated) the Potency was inconclusive: 35.5 µM [activator, partial curve]. For O=S(=O)(c1cccs1)N1CCN(S(=O)(=O)c2cccs2)CC1, the activity change, negative = inhibition was inconclusive: 10.3% [activator]. Cc1ccc(C(=O)NC(=S)N2CCN(C(=O)OC(C)(C)C)CC2)cc1Br was tested, and the activity change, negative = inhibition was inconclusive: 16.3% [activator]. With Cc1nnc2ccc(-c3ccc(NC(=O)c4cccnc4Cl)cc3)nn12 the Potency was inconclusive: 7.94 µM [inhibitor, full curve]. For Cc1cc(S(=O)(=O)NCc2ccc(N3CCN(C)CC3)cc2)c(C)s1, the Potency was inconclusive: 0.178 µM [inhibitor, full curve]. For CCN(CC)S(=O)(=O)c1ccc2[nH]cc(C(=O)NCCc3ccc(OC)c(OC)c3)c(=O)c2c1, the Potency was inconclusive: 12.6 µM [inhibitor, single point]. In the case of c1ccc2c(c1)NC1(CCCCC1)n1c-2nc2ccccc21, the Potency is reported as inconclusive: 22.4 µM [activator, partial curve]. For COC(=O)c1ccccc1NC(=O)c1ccc(COc2cccc3ccccc23)o1, the Potency was inconclusive: 50.1 µM [inhibitor, single point]. In the case of O=C(CC(Cc1ccccc1)c1ccco1)NCc1ccco1 (configuration not stated), the Potency is reported as inconclusive: 4.47 µM [inhibitor, partial curve]. For CCCOc1ccc(C(=O)CCC(=O)OCC(=O)Nc2cc(C)on2)cc1, the Potency was inconclusive: 5.01 µM [inhibitor, partial curve]. For O=C(CC1Nc2ccccc2NC1=O)NCCc1ccccc1 (configuration not stated), the activity change, negative = inhibition was inconclusive: 17.1% [activator]. In the case of Cc1cc(C)nc(NC(=O)/C=C/c2ccc(Cl)cc2)n1, the Potency is reported as “inactive”. With CCC(c1nnnn1CC1CCCO1)N(CCCO)Cc1cc2cccc(C)c2[nH]c1=O (configuration not stated) the Potency was inconclusive: 1.41 µM [inhibitor, single point]. CC1CC(C)CN(C(=O)CSc2ccsc2[N+](=O)[O-])C1 (configuration not stated) was tested, and the Potency was “inactive”. With CCCCC1CCC(c2nc(-c3cccnc3)no2)CC1 (configuration not stated) the Potency was inconclusive: 50.1 µM [inhibitor, single point].
